This note sets out measurements from the RNAGym collection of RNA variant scans (doi:10.1093/nar/gkz1192).

To fix the notation:
B1: CPEB3 Ribozyme (parent)
chain: UAACAGGGGGCCACAGCAGAAGCGUUCACGUCGCAGCCCCUGUCAGAUUCUGGUGAAUCUGCGAAUUCUGCUGUAUAUCUC

The source gives no read counts; variants with many changes may rest on few reads.

This series covers variants of B1. Nature of the series: self-cleavage, relative activity (ratio to wild type); higher = more cleavage; in vitro, sequencing. The essentials: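 Libraries of CPEB3 self-cleaving ribozyme mutants came from rounds of error-prone PCR and carried barcodes, which DNA sequencing matched to variants. In vitro transcription used T7 RNA polymerase at 37°C for 5 hours, with a further 15 min in DNase I before EDTA stopped the reaction; the ribozymes cleaved during both steps. The RNA was reverse transcribed with template switching and sequenced on Illumina. Relative activity is the cleaved/total read fraction of a variant divided by that of the unmutated ribozyme, averaged over three batches with at least 5 reads.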
Turning to UAACAAGGGGCCACAGCAGAAGCGUUCACAUCGCAGCCCCUGUCAGAUUCUGGUGAAUCUGCGGAUUCAGCUGUAUAUCUC [G6A G30A A64G U69A], the self-cleavage was 0.09.
Regarding UAACAAGGAGCCACAGCAGAAGUGUUCACGUCGCAGCCCCUGUCAGAUUCUUGUGAAUCUGCGAAUUCUGCUGAAUAUCGC [G6A G9A C23U G52U U74A U80G], the self-cleavage amounted to 0.04.
To UAACAAGGGGCCACAGCAGAAGCGUUCACAUCGCAGCCCCUGUCAGUUUCUGGUGAAUCUGCGAAGUCUGCUGUAUAUCAC [G6A G30A A47U U66G U80A] belongs 0.04.
To UAACAAGAAGCCACAGCAGAAGCGUUCACGUCGCAGCCCCUGUCAGAUUCUGGUGAAUCUGCGAAUUCUGCUGUAUGUCUC [G6A G8A G9A A77G] belongs 0.41.
As for UAACAAGGGGCCACAGCAGAAGCACUCUCGUCGCAGCCACUGUCAGAUACUGGUGAAUCUGCGAAUUCUGCUGCAUAUCUC [G6A G24A U25C A28U C39A U49A U74C], the figure is 0.05; as for UAACAAGGGGCCACAGCAGAAGCGGUCACGUCGCAGCCCCUGUCAGAUACUGGUGAAUCUGCGGAUUCAGCUGUAUAUCUU [G6A U25G U49A A64G U69A C81U], 0.05; as for UAACAAGGGGCCACAGCAGAAGCGUCCACGUCGCAGCCCCCGUCAGAUUCUGGUGAGUCUGCGAAUUCUGCUGUACAUCUC [G6A U26C U41C A57G U76C], 0.23.
For UAACAAGGGGCCACAGCAGAAGCGCUCACGUCGCAGCCCCUGUCAGAUUCUGGUGAAUCUGCGAAUUCCGCUGUAUAUCUC [G6A U25C U69C], the self-cleavage came out at 0.05.
As for UAACAAGGGGCCACAGCAGAAGCGAGCACGUCGCAGCCCCUGUCAGAUUCUGGUGAAUCUGCGAAUUCUGCUGUAUGUCAC [G6A U25A U26G A77G U80A], the figure is 0.26.
As for UAACAAGGGGCCACAGCAGAAGCGCUCACGCCGCAGCCCCUGUCAGAUUCUGGUGAGUCUGCGGAUUCUGCUGUAUAUCUC [G6A U25C U31C A57G A64G], the figure is 0.08; as for UAACAAGGGCCCACAGCAGAAGCGUUCACGUCGCAGCCCCUGUCAGAUUCUGGUGAAUCCGCGAAUUCUGCUGUAUAUCUC [G6A G10C U60C], 0.4.
UAACAAGGGACCACAGCAGAAGCGUUCGCGACGCAGCCCCUGUCAGAUUCUGGUGAAUCUGCGAAUUCUGCUGUAUAUCUC [G6A G10A A28G U31A]: the self-cleavage is 0.23.
As for UAACAAGGGGCCACAGCAGAAGCGUUCACGACGCAGCCCUUGUCAGAUUCUGGUGAAUCUGCGAAUUCUGCUGCAUAUCUC [G6A U31A C40U U74C], the figure is 0.06.
To UAACAAGGGGCCACAGCAGAAGCGCUCACGUCGCAGCCCCUGUCGGAUUCUGGUGAAUCUGCGAAUUCUGCUGUAUAUCUC [G6A U25C A45G] belongs 0.1; to UAACAAGGGGCCACAGCAGAAGCGCUCACGUCGUAGCCCCUGUCGGAUUCUGGUGUAUGUGCGAGUUCUGCUGUAUAUCUC [G6A U25C C34U A45G A56U C59G A65G], 0.02; to UAACAAGGGGCCACAGCAGAAGCGUUCACGACGCAGCCCCCGUCAGAUUCUGGAGAAUCUGUGAGUUCUGCUGUAUAUCUC [G6A U31A U41C U54A C62U A65G], 0.06.
As for UAACAAGGGGCCACAGCAGAAGCGUACACGUCGCAGCCCCUGUCAGAUUCUGGUGAGUCUGCGAAUUCUGCUGUAUAUCUC [G6A U26A A57G], the figure is 0.08; as for UAACAAGGAGCCACAGCAGAAGCGUUCACGCCGCAGCCCCUGCCAGAUUCUGGUGGAUCUGCGAAUUCUGCUGUAUAUCUC [G6A G9A U31C U43C A56G], 0.21.
UAACAAGGGGCCACAGCAGAAGCGCUCACGUCGCUGCCCCUGUCAGAUUCUGGUGAAUCUGCGGAUUCUGCAGUAUAUCUC [G6A U25C A35U A64G U72A]: the self-cleavage worked out at 0.05.
To UAACAAGGAGCCACUGCAGAAGUGCUCACGCCGCAGCCCCUGCCAGAUUCUGGUGAAUCUGCGAAUUCUGCUGUAUAUCUC [G6A G9A A15U C23U U25C U31C U43C] belongs 0.11; to UAACAAGGUGCCACAGCAGAAGCGUUCACGUCGCAGCCCCUAUCAGAUUCUGGUGAGUCUGCGAAUCCUGCUGUAUUUCUC [G6A G9U G42A A57G U67C A77U], 0.06; to UAACAAGGGGCCACAGCAGAAGCGCUCACGUCGCAGCCCCUGUCGGAUCCGGGUGAAUCUGCGAAUUCUGCUGUAUAUCUC [G6A U25C A45G U49C U51G], 0.38.
Consider UAACAAGGGGCCACAGCAGAAGCGUUCACGUCGCAGCCGCUGUCAGAUUCUGGUGAGUCUGCGAAUUCUGCUGUAUAUCUC [G6A C39G A57G], for which the self-cleavage came out at 0.33.
To UAACAAGGGGCCACAGCAGAAGCGGUCACGUCGCAGCCCCUGUCAGAUUCUGGCGAAUCUGCGAAUUCUGCUGUAUAUCUC [G6A U25G U54C] belongs 0.28; to UAACAAGGGGCCACAGCAGAAGCGUAAGCGUCGCAGCCCCAGUCAGAUUCUGGUGAAUCUGCGAAUUCUGCUGUAUAUCUC [G6A U26A C27A A28G U41A], 0.08.
With UAACAAGGGACCACAGCAGAAGCGCUCACGUCGCAGCCCCUGUCUGAUUCUGGAGAAUCUGCGAAUUCUGCUGUAUAUCUC [G6A G10A U25C A45U U54A], the self-cleavage turned out to be 0.14.
To UAACAAGGGGCCACAGCAGAAGCGUUCACGUCGCAGCCCCUGUCAGAUUCUGGUGAAUCUGCAAAUUCUGCUGUUUAUCUC [G6A G63A A75U] belongs 0.33; to UAACAAGGGACCACAGCAGAAGCGUUCACGUCGCUGCCCCUGUCAGACUCUGGUGAAUCUGCGGAUUCUGCUGUUUAUCUC [G6A G10A A35U U48C A64G A75U], 0.04; to UAACAAGGGGCCACAGCAGAAGCGCUCACGUCGCAGCCCCUGACAGAUUCUGGUGGAUCUGCGAAUUCUGCCGUAUACCUC [G6A U25C U43A A56G U72C U78C], 0.06.
As for UAACAAGGGGCCACAGCAGAAGCGUCCACGUCGCAGCCCCUGUCAGAUUCUGGUGAAUCUGCGAAUUCUGCGGUAUAUCUC [G6A U26C U72G], the figure is 0.25; as for UAACAAGGGGCCACAGCAGAAGCGUUCACGUCGCAGCCCCUGUAAGAUUCUGGUGGAUCUGCGAGUUCUGCUGUAUAUCUC [G6A C44A A56G A65G], 0.08.
As for UAACAAGGGGCCACAGCAGAAGCGCUCUCGUCGCAGCCCCUGUCAGAUUCUGGUGAAUCUGCGAAUUCUGCUGUAUAUCUC [G6A U25C A28U], the figure is 0.08.
Regarding UAACAAGGGGCCACAGCAGAAGCGUACGCGUCGCAGCCCCUGUCAGAUUCUGGUGAAUCUGCGAAUCCUGCUGUAUAUCUC [G6A U26A A28G U67C], the self-cleavage came to 0.11.
To UAACAAGGGGCCACAGCAGAAGCGUGCACGUCGCAGCCCAUGUCAGAUUCUGGAGAAUCUGCGUAUCCUGCUGUAUAUCUC [G6A U26G C40A U54A A64U U67C] belongs 0.04.
